Test results from PubChem BioAssay AID1963576 (National Center for Advancing Translational Sciences (NCATS), 2024).
Screen size: about 46,000 compounds; about 60 (0.1%) were called active. Not shown: some 3% with an inconclusive outcome. Calls come from the whole dose curve; as a rule, active = well fitted inhibition curve with a large enough effect; inconclusive = small, poorly fitted or top-dose-only effect; inactive = no such curve, though single readings can be large or run the other way. Some of the results follow.

Assay: Primary qHTS assay for Inhibitors of ovarian cancer metastasis using an organotypic tumor microenvironment (TME) model.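 For activity change, negative = inhibition: plate controls were DMSO wells for no effect and tomatine positive control wells for full effect.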 Note: nearly all actives have a fitted effect of over 65% in size.
Settings: SKOV3ip1-GFP adhesion/invasion on 3D omental model, fluorescence; series mostly up to 45.8 µM; activity change, negative = inhibition: at the top concentration
In short: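 qHTS, 4-pt dose (0.36-46 umol/L); SKOV3ip1-GFP, 1,200 cells/well, no FBS; primary omental fibroblast/mesothelial co-culture 48 h pre-grown; 2 h RT + 16 h 37 C; PBS wash, 4% PFA; GFP count 488/509 nm.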

Activity change, negative = inhibition, inactive:
COc1ccccc1NC(=O)CCn1cnc2onc(-c3ccc(F)cc3)c2c1=O -0.925%, CCCSc1nnc2c(n1)OC(c1ccc(OCC(=O)O)cc1)Nc1ccccc1-2 (configuration not stated) 5.49%, CC(=O)c1cccc(Nc2nn(-c3ccc(OC(F)(F)F)cc3)nc2C(C)=O)c1 -5.78%, Cc1c(C(=O)N(Cc2ccc(N(C)C)cc2)Cc2ccco2)oc2cc(Br)ccc12 7.37%, Cn1cc(C(=O)NCCc2ccccc2)c(=O)c2cc(S(=O)(=O)N3CCCCCC3)ccc21 -5.2%, COc1ccc(CNC(=O)CCc2c(C)nc3nc(CNC(=O)OC(C)(C)C)nn3c2C)cc1 -1.84%, COc1ccc(-c2ccc(CCC(=O)O)n2CC(=O)Nc2cccc(Cl)c2C)cc1 3.11%, Cc1cc(C)cc(NC(=O)C(=O)NCC(c2cccnc2)N2CCN(c3ccccc3)CC2)c1 (configuration not stated) 4.17%, CCOc1ccc(N(C(C)C(=O)NCCSc2ccc(C)cc2)S(C)(=O)=O)cc1 (configuration not stated) 2.12%, COc1cccc(C(c2sc3nc(-c4ccco4)nn3c2O)N2CCN(c3ccccc3F)CC2)c1 (configuration not stated) -7.42%, CCc1cc2c(cc3c(=O)n(CC(=O)NC4CCCCC4)ncn32)s1 -1.23%, Cc1ccc(OCC(=O)Nc2ccc3[nH]c(=O)sc3c2)cc1 6.46%, COc1ccc(NC(=O)C(C)Sc2cc(-c3ccccc3)nc(C)n2)cc1Cl (configuration not stated) -25.9%, O=C1CN(C(=O)Nc2ccccc2Cl)C(c2ccccc2)c2c(sc3c2CCCC3)N1 (configuration not stated) -9.57%, COc1ccc(S(=O)(=O)Nc2cc3c(cc2N2CCOCC2)n(C)c(=O)n3C)cc1 1.33%, O=C(CCn1c(=O)c2cccn2c2cccnc21)NCc1ccccc1F -0.84%, COc1cccc(NC(=O)c2ccc3[nH]c(C)cc(=O)c3c2)c1 5.53%, CCCc1cc(=O)oc2cc(C)c3c(C(C)(C)C)coc3c12 3.67%, CCC1CCc2nc3sc(C(=O)Nc4cccc(C(F)(F)F)c4)c(N)c3cc2C1 (configuration not stated) 2.24%, CCc1nn2c(=O)cc(COC(=O)c3ccc(NC(=O)C4CCCCC4)cc3)nc2s1 20%, O=C(COc1ccc(F)cc1)Nc1ccccc1OCc1cc(=O)n2ccccc2n1 -4.9%

outcome, inactive:
O=C(CN1C(=O)CC(c2ccco2)Sc2ccccc21)Nc1ccc(Br)cc1 (configuration not stated), COc1ccccc1-c1noc(-c2ccc(NCc3cccnc3)c([N+](=O)[O-])c2)n1, CCCCn1cc(S(=O)(=O)c2ccc(CC)cc2)c(=O)c2cc(F)c(N3CCOCC3)cc21, COc1ccc(-n2ccn(Cc3ccccc3C)c(=O)c2=O)cc1, Cc1nn(-c2ccccc2)c2c1N(CCCC(=O)NCc1ccccc1)C(=O)CS2, COc1ccc(-c2noc(-c3ccc(NC4CCCCC4)c([N+](=O)[O-])c3)n2)cc1
